From PubChem BioAssay AID1240 (Sanford-Burnham Center for Chemical Genomics, 2008) come the findings set out here.

The campaign covered roughly 50,000 compounds. About 800 (1.6%) showed an effect of 50% or more. Some of the results follow.

This test addresses Bcl-2-like protein 10 (Homo sapiens) (UniProt Q9HD36). Description: TR3 peptide-Bcl-B binding displacers, biochemical primary FP assay, phenotype converters (AID 1240).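 Further: 0% = Bcl-B with tracer peptide and DMSO and 100% = tracer peptide lacking Bcl-B.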 To be noted: GST-Bcl-B / FITC-TR3 peptide fluorescence polarization; stronger effect = higher value; compound at 3.75 mg/L. For orientation: Polarisation of emitted light reports the rotation of a fluorescent probe.
Chain of UniProt Q9HD36 (Q9HD36 whole entry, looked up): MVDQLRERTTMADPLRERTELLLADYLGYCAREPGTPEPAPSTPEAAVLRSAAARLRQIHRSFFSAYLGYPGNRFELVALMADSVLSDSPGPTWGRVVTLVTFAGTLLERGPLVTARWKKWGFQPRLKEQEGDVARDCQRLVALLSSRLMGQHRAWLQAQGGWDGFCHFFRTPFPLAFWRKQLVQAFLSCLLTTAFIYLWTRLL
Consider `CC(C)(C)Cc1ccc(C2C(=O)c3ccccc3C2=O)cc1`, for which the displacement was -2.3%. Next, `Cc1cc(OCCCn2ccnc2)cc(C)c1Cl`: 14.5%.

Consider `C#CCn1cc(/C=C(/C#N)C(=O)Nc2cccc(Br)c2)c2ccccc21`, for which the displacement was -1.7%. Consider `O=C(/C=C/c1ccccc1OCc1ccccc1)c1cccc(Br)c1`, for which the displacement was -2.9%. Turning to `CC(C(=O)O)N1C(=O)/C(=C/c2ccc([N+](=O)[O-])cc2)SC1=S` (stereo unspecified), the displacement was found to be 12.2%. With `CCOc1cc(/C=N/NC(=O)c2ccncc2)ccc1OC(=O)c1ccc([N+](=O)[O-])cc1`, the displacement was found to be 6.9%. The result for `CC(=O)NS(=O)(=O)c1ccc(NC(=O)c2ccc([N+](=O)[O-])cc2[N+](=O)[O-])cc1` reads 7.5%; that for `Cc1cc(Br)ccc1NC(=O)c1ccc(NC(=O)C(C)(C)C)cc1`, 8.5%; that for `COc1ccc(/C=N/N=C2\NC(=O)C(CC(=O)O)S2)c(OC)c1` (stereo unspecified), -22.5%. With `Cc1ccc(S(=O)(=O)N/N=C/c2ccc3c(c2)OCO3)cc1[N+](=O)[O-]`, the displacement turned out to be 12.9%. Turning to `COc1ccc(C(NC(=O)c2ccccc2)c2ccc3cccnc3c2O)cc1` (stereo unspecified), the displacement was -4.7%.

In the case of `COc1ccc(NC(=O)/C(=C/c2ccccc2Cl)NC(=O)c2ccc(C)cc2)cc1`, the displacement was -3.8%.

In the case of `COc1ccc(/C=C/C(=O)NCCc2c[nH]c3ccccc23)cc1OC`, the displacement is -5%. As to `Cc1n(C)c2cccnc2[n+]1C`, the displacement was determined as 1.7%. With `CCc1c(C)c(C#N)c2nc3ccccc3n2c1Nc1ccc(OC)cc1`, the displacement was found to be 1.8%. The result for `CCOC(=O)c1nnsc1NC(=O)Nc1ccccc1` reads -9.5%. Next, `Cc1nn(C(=O)c2ccc(Cl)cc2)c(C)c1Sc1ccc([N+](=O)[O-])cc1`: 0.4%; `COc1ccccc1NC(=O)CC1S/C(=N\N=C(/C)C(C)(C)C)NC1=O` (stereo unspecified): -2.1%; `COc1ccc(-c2noc(-c3ccc(I)cc3)n2)cc1`: -1.2%. In the case of `CS(=O)(=O)N1CCN(Cc2ccccc2Br)CC1`, the displacement stood at 11%.

Turning to `Cc1cc(C)cc(N2C(=O)NC(=O)/C(=C\c3cn(C)c4ccccc34)C2=O)c1`, the displacement worked out at 144%.

Take `O=C(O)CCCCCN1C(=O)/C(=C\c2ccc(-c3ccc(Cl)c(Cl)c3)o2)SC1=S`: the displacement turned out to be 21.2%. In the case of `CN(C)S(=O)(=O)c1ccc(C(=O)Nc2ccc(F)cc2F)cc1`, the displacement stood at 12.2%. For `COC(CNS(=O)(=O)c1ccc(Cl)cc1)c1ccccc1` (stereo unspecified), the displacement was 5.3%. For `CC(C)N1C(=O)C(=Cc2c(N(C)Cc3ccccc3)nc3ccccn3c2=O)SC1=S`, the displacement came out at 27.4%. For the compound `CCN(Cc1ccccc1)C(=O)CN1C(=O)c2ccccc2C1=O`, the displacement worked out at 13.8%. `COC(=O)C1=C(C)NC(=O)CC1c1ccccc1C(F)(F)F` (stereo unspecified): the displacement was -0.9%. As for `O=C1/C(=C/c2ccc(Br)o2)SC(=S)N1Cc1ccccc1`, the displacement turned out to be 8%. Take `O=C(CCCOc1ccc(Cl)cc1Cl)Nc1ccccn1`: the displacement was -6.7%.

With `O=C(CCN1C(=O)c2ccccc2C1=O)NC1CCCC1`, the displacement is 8.5%. Consider `Cc1ccc(/C=C/C(=O)Nc2ccccc2Cl)o1`, for which the displacement is -5.9%. As for `COc1cc(CN2CCN(C(=O)c3ccccc3)CC2)cc(OC)c1O`, the displacement amounted to 1.5%. On to `COC(=O)C1=C(C)NC2=C(C(=O)CCC2)C1c1ccc(OC)cc1OC` (stereo unspecified), for which the displacement was -1.7%. With `COc1ccccc1OCCOc1cccc(/C=N/n2cnnc2)c1`, the displacement is -0.2%. Turning to `Oc1ccccc1C(=S)N1CCCC1`, the displacement was 2.9%. With `C=C(C)C(=O)Nc1cccc(C(=O)NCC(C)C)c1`, the displacement is 5.1%.

For the compound `CC(=O)N1CCN(c2ccc(NC(=O)c3cccc(Br)c3)cc2)CC1`, the displacement worked out at 4.8%.

For the compound `O=C1/C(=C/C=C/c2ccccc2)SC(=S)N1Cc1ccco1`, the displacement was 99.7%. In the case of `COc1ccc(C2/C(=C(\O)c3ccc(C)cc3)C(=O)C(=O)N2CCCC(=O)O)c(OC)c1` (stereo unspecified), the displacement is 4.7%. On to `COc1ccc(S(=O)(=O)N2CCN(Cc3cccc4ccccc34)CC2)cc1`, for which the displacement was -18.5%. In the case of `CCN1C(=O)/C(=C\c2cc(Cl)ccc2OCc2ccccc2)SC1=S`, the displacement was determined as 1.6%. Regarding `COC(=O)c1c(NC(=O)c2ccc([N+](=O)[O-])c(C)c2)sc2c1CCCC2`, the displacement was -11.6%.

For `O=C(Nc1cccc(NC(=O)c2ccc(Cl)cc2Cl)c1)c1ccc2ccccc2c1`, the displacement was -9.1%.

Regarding `CCn1c(SCC(=O)c2ccccc2)nc2sc3c(c2c1=O)CC(C)(C)OC3`, the displacement was -8.9%.

Regarding `Cc1cc(C(=O)Nc2ccc(O)c(C(=O)O)c2)c(C)o1`, the displacement was -3%. As to `COc1ccc(CN=Cc2c(O)n(-c3ccccc3Cl)c(=O)[nH]c2=O)cc1`, the displacement was -8.4%. On to `O=[N+]([O-])c1ccccc1S(=O)(=O)NCc1ccc2c(c1)OCO2`, for which the displacement was -3.4%. In the case of `CCC(=O)NNC(=O)COc1ccc(Cl)cc1`, the displacement was -8.3%.

With `CC(C)(C)c1cc(Br)ccc1OCC(=O)Nc1cccc([N+](=O)[O-])c1`, the displacement is -7.3%. Next, `O=C(c1ccccc1)c1cc(Br)ccc1NC(=O)c1nc[nH]c1C(=O)O`: 3.9%; `Cc1ccc(-c2nnc(Nc3ccc4c(c3)ncn4C)c3ccccc23)cc1`: 0.8%; `O=C(CCCN1C(=O)c2ccccc2C1=O)Nc1ccccc1C(=O)N1CCCC1`: 12.9%. For the compound `CCN(CC)CCn1c(=N)n(CCO)c2ccccc21`, the displacement was -4.7%.

Turning to `O=C1NC(=O)C(=Cc2ccccc2OCc2ccc(F)cc2)C(=O)N1`, the displacement was found to be 6.9%. Next, `CC1=C(C(=O)Nc2ccccc2Cl)C(c2ccc(C(C)C)cc2)NC(=S)N1` (stereo unspecified): -2.8%. In the case of `Cc1occc1C(=O)Nc1cccc(Cl)c1`, the displacement is 0.6%. For `COc1cc(Br)ccc1NC(=O)c1ccccc1-c1ccccc1C(=O)O`, the displacement was -5.9%. For `COC(=O)C(C)N(C(=O)c1cccc2ccccc12)c1c(C)cccc1C` (stereo unspecified), the displacement was 11.9%.

On to `CC(=O)/C(CN1CCCCC1)=N/O`, for which the displacement came out at 5.4%.

Turning to `CCC(=O)c1ccc(OCC(O)COc2ccc(C(=O)CC)cc2OC)c(OC)c1`, the displacement was -8.3%.

Take `CCOc1ccc(/C=N\NC(=O)C2CC(=O)N(c3ccc(C)cc3)C2)cc1` (stereo unspecified): the displacement is -2.3%. On to `CCSc1nnc(NC(=O)c2cc(-c3ccc(C)cc3)nc3ccccc23)s1`, for which the displacement was found to be 11.9%.

As for `Cc1cc(C)n2c(SCC(C)C)nnc2n1`, the displacement was found to be 1.9%. In the case of `Cc1ccnc(NS(=O)(=O)c2ccc(NC(=O)c3c(-c4ccccc4)noc3C)cc2)n1`, the displacement was -6.1%. Regarding `CCOC(=O)C(Cc1ccccc1)P(=O)(OCC)OCC` (stereo unspecified), the displacement is -0.5%. As for `CC(C)OC(=O)c1c(-c2ccc(Br)cc2)csc1NC(=O)/C=C/C(=O)O`, the displacement turned out to be 15.2%. Consider `Cc1occc1C(=O)NCCc1cccc(Cl)c1`, for which the displacement is -3.3%. For `CCOC(=O)C1=C(C)OC(N)=C(C(=O)OCC)C1c1ccc([N+](=O)[O-])cc1` (stereo unspecified), the displacement is -6.8%. With `Cc1ccccc1N(C)S(=O)(=O)c1ccc(Cl)cc1`, the displacement stood at 32.7%. Regarding `CC(C)C(=O)NCCN1CCOCC1`, the displacement was -0.3%. Next, `COc1ccccc1NC(=O)C1=C(C)NC(=O)NC1c1ccc(C(C)C)cc1` (stereo unspecified): -3.6%.
